Data taken from PubChem BioAssay AID1963576 (National Center for Advancing Translational Sciences (NCATS), 2024).
Out of some 46,000 compounds screened, about 60 (0.1%) were called active. Roughly 3% stayed inconclusive and do not appear here. The call rests on the fitted dose curve; in most records, active means well fitted inhibition curve with a large enough effect; inconclusive means small, poorly fitted or top-dose-only effect; inactive means no such curve, though single readings can be large or run the other way. The list shows a part of the results.

Experiment: Primary qHTS assay for Inhibitors of ovarian cancer metastasis using an organotypic tumor microenvironment (TME) model. Further: nearly all actives have a fitted effect of over 65% in size.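 On activity change, negative = inhibition: plate controls were DMSO wells for no effect and tomatine positive control wells for full effect.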
Settings: SKOV3ip1-GFP adhesion/invasion on 3D omental model, fluorescence; series mostly up to 45.8 µM; activity change, negative = inhibition: at the top concentration
Procedure, shortened: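 qHTS, 4-pt dose (0.36-46 umol/L); SKOV3ip1-GFP, 1,200 cells/well, no FBS; primary omental fibroblast/mesothelial co-culture 48 h pre-grown; 2 h RT + 16 h 37 C; PBS wash, 4% PFA; GFP count 488/509 nm.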

SMILES | outcome | activity change, negative = inhibition
CC1=C(C(=O)Nc2ccccc2)C(c2ccccc2Cl)n2ncc(C(=O)Nc3cccc(C)c3)c2N1 (stereo unspecified) | inactive | –
COc1ccc(Cl)cc1NC(=O)CSc1nc2ccccc2nc1N1CCCCC1 | – | inactive: 3.76%
CCOC(=O)c1c(C)oc2ncnc(N3CCN(c4cccc(Cl)c4)CC3)c12 | inactive | –
Cc1nn(C)c2c1c(C(F)(F)F)cc(=O)n2C(C)C(=O)N1CCN(c2ccccc2)CC1 (stereo unspecified) | – | inactive: 0.987%
CCOC(=O)c1cc(-c2ccccc2)n(CCCC(=O)Nc2ccc(C)c(C)c2)c1C | – | inactive: 5.89%
Clc1ccc(CCNC(c2cccc(Cl)c2)c2nnc(-c3ccccc3)o2)cc1 (stereo unspecified) | inactive | –
Cn1cc(S(=O)(=O)N2CCCCCC2)cc1C(=O)N1CCN(c2ccc(Cl)cc2)CC1 | inactive | –
Cn1c(=O)c2c(ncn2CC(=O)Nc2cc(Cl)cc(Cl)c2)n(C)c1=O | – | inactive: -0.94%
O=C(CCCCn1c(=O)c2ccccc2n(CC(=O)Nc2cccc(F)c2)c1=O)NCc1ccccc1Cl | – | inactive: 6.46%
CCOc1ccc(CNC(=O)Cn2c(=O)c3cccn3c3ccc(F)cc32)cc1OC | inactive | –
COc1cc(NCc2ccc3nc(N)nc(N)c3c2C)cc(OC)c1OC | – | inactive: 0.904%
CN(Cc1ccccc1)C(=O)c1cc2c(s1)-c1ccc(Cl)cc1SC2 | – | inactive: 0.175%
Cc1ccc(S(=O)(=O)N[C@@H](Cc2ccccc2)C(=O)CCl)cc1 | – | inactive: -5.35%
COc1cc(/C=C/c2nc(C#N)c(NC(C)c3ccccc3)o2)cc(OC)c1OC (stereo unspecified) | – | inactive: 29.6%
O=C(O)CCc1ccc(-c2ccccc2)n1-c1cccc(Br)c1 | – | inactive: -6.14%
CC(C)(OCc1nn(Cc2ccccc2)c2ccccc12)C(=O)O | – | inactive: 3.79%
O=C(c1ccc(Cl)cc1)n1nc(-c2ccco2)nc1NCc1cccs1 | – | inactive: 3.84%
CCc1ccc(Oc2nc3c(C)cccn3c(=O)c2/C=C(\C#N)c2nc3ccccc3s2)cc1 | – | inactive: -1.53%
CCOC(=O)CCN(c1ccccc1)S(=O)(=O)c1ccc2[nH]c(=O)ccc2c1 | – | inactive: -0.956%
CCCCN(C)CCNC(=O)Cn1ncc2c([nH]c3ccccc32)c1=O | inactive | –
Cc1ccc(NC(=O)CCSc2nc(-c3ccc4c(c3)OCO4)cc(C(F)(F)F)n2)cc1 | – | inactive: -0.146%
Cc1ccc(CNC(=O)Cn2c(=O)n(-c3ccccc3)c(=O)c3c2c2cc(C)ccc2n3C)cc1 | inactive | –
O=C(NCC(c1cccs1)S(=O)(=O)c1cccs1)c1ccc(C(F)(F)F)cc1 (stereo unspecified) | – | inactive: 2.19%
CCOc1ccccc1NC(=O)N1CCCn2nc(C)cc21 | – | inactive: 2.27%

SMILES | outcome | activity change, negative = inhibition
O=C(Cc1csc2nc(-c3ccccc3)cn12)NCc1ccc(F)cc1 | – | inactive: -10.2%
COc1cccc(N(Cc2nnc3n2CCCCC3)C(=O)Nc2cccc(Cl)c2)c1 | – | inactive: -17.9%
CCOCCCNC(=O)CN1C(=O)c2c(c3ccccc3n2C)C1c1ccc(OC)cc1 (stereo unspecified) | – | inactive: -9.75%
Cc1ccc(-n2ncc3c(N(CCO)Cc4ccccc4)ncnc32)cc1 | – | inactive: 9.03%
COc1ccc(CCCc2nnc(SCC(=O)Nc3ccccc3F)o2)cc1C | inactive | –
COc1ccc(N(C(=O)COc2ccc(Br)cc2)S(=O)(=O)c2ccc(C)cc2)cc1 | – | inactive: 1.57%
Cc1ccc(NC(=O)CCc2c(C)nn(-c3ccc(N4CCOCC4)nn3)c2C)cc1F | inactive | –
O=C(OCc1ccccc1Cl)c1ccc(-c2nnn(Cc3ccccc3Cl)n2)cc1 | – | inactive: -1.89%
CCOC(=O)c1c(S(=O)(=O)N2CCCC(C(=O)Nc3ncccc3C)C2)c(C)n(C)c1C (stereo unspecified) | – | inactive: 3.08%
Cc1ccc(NC(=O)Cn2cc(S(=O)(=O)NC(C)C)c(S(=O)(=O)NC(C)C)c2)cc1Cl | – | inactive: -1.35%
Cc1cc(C)c(S(=O)(=O)Nc2cccc(-c3cn4ccccc4n3)c2)c(C)c1 | – | inactive: -5.48%
Cc1ccc(NC(=O)Cn2c(=O)n(CCc3ccccc3)c(=O)c3c4c(sc32)CCCC4)cc1C | – | inactive: -1.85%
Cc1ccc(C)c(CN2C(=O)c3ccccc3S(=O)c3ccc(C(=O)NCc4ccco4)cc32)c1 (stereo unspecified) | – | inactive: -41%
COc1ccc(Cn2ccc3nc(C)c(C(=O)Nc4ccc(OC)cc4OC)cc3c2=O)cc1 | – | inactive: -5.06%
Cc1ccc(-c2nnc(Nc3ccc(O)cc3)c3ccccc23)cc1S(=O)(=O)NCC1CCCO1 (stereo unspecified) | – | inactive: -7.67%
CC(C)n1c(=O)c2oc3ccccc3c2n(Cc2ccccc2F)c1=O | – | inactive: -8.07%
COc1cccc(NC(=O)c2ccc(CNS(=O)(=O)c3ccc4c(c3)C(C)(C)C(=O)N4C)cc2)c1 | – | inactive: -4.92%
Cc1ccc(NC(=O)C2CCN(c3nn4c(=O)cc(C)nc4s3)CC2)cc1 | inactive | –
Cc1c(Cl)cccc1NC(=O)CSc1cc(-c2ccccc2)ncn1 | – | inactive: -2%
O=C(/C=C/c1ccco1)Nc1ccc(Cl)c(-c2nc3cc(Cl)ccc3o2)c1 | – | inactive: 5.42%
Cc1ccc(N2CC(NC(=O)/C=C\c3ccc4c(c3)OCO4)CC2=O)cc1 (stereo unspecified) | – | inactive: -13.1%
COc1ccc(CNC(=O)Cn2ccc3cc(S(=O)(=O)N4CCCCCC4)ccc32)c(OC)c1 | – | inactive: -2.14%
O=C(C1CC1)N1CCc2cc(Br)cc(S(=O)(=O)N3CCN(c4ccccc4F)CC3)c21 | inactive | –
Cc1cc2ccccc2n1-c1ccc(C(=O)N2CCC(C(=O)NCc3ccc(F)cc3)CC2)s1 | – | inactive: -21.2%

SMILES | outcome | activity change, negative = inhibition
COC(=O)c1c(SCC(=O)Nc2ccccc2OC)[nH]c2ccccc2c1=O | – | inactive: -6.56%
COc1ccc(Oc2nc3c(c(=O)n(Cc4ccccc4Cl)c(=O)n3C)n2C)cc1 | – | inactive: -20.5%
COc1ccc(-c2nc3scc(CCNS(=O)(=O)c4cccc(C(C)=O)c4)n3n2)cc1 | – | inactive: 18.9%
Cn1c(C(=O)N2CCC(C(=O)NCCc3ccc(S(N)(=O)=O)cc3)CC2)cc2sccc21 | – | inactive: 1.23%
CCOC(=O)c1ccc(NC(=O)c2cc3c(n(-c4ccc(C)cc4)c2=O)CC(C)(C)CC3=O)cc1 | – | inactive: -3.82%
Cc1ccc(CCNC(=O)c2ccc(CSCc3ccc(C)cc3)o2)cc1 | – | inactive: -10.6%
CC12CN3CC(C)(CN(C1)C3c1ccc(OCc3ccccc3)cc1)C2=O (stereo unspecified) | – | inactive: -2.03%
CC1=C(c2ccc(Cl)cc2)S(=O)(=O)NC1=NCc1ccc(C)cc1 | – | inactive: -5.93%
O=C(CSc1nc2c(oc3ccccc32)c(=O)[nH]1)Nc1cccc(Cl)c1 | inactive | –
CN(C)c1cccc(C(=O)Nc2ccc(-c3nc4ccccc4s3)cc2)c1 | – | inactive: -1.6%
CCOC(=O)c1cccc(NC(=O)CCNS(=O)(=O)c2cccc3nonc23)c1 | inactive | –
Cc1ccc(NC(=O)CSc2nnc(C)c(=O)[nH]2)cc1 | – | inactive: 16.5%
CCc1ccc(NC(=O)Cn2c(=O)ccc3cc(S(=O)(=O)N4CCCC4)ccc32)cc1 | inactive | –
Cc1noc(Cn2c(=O)c3ccccc3n(CC(=O)Nc3ccccc3C(F)(F)F)c2=O)n1 | – | inactive: -3.81%
Oc1ccc(Nc2nc(-c3ccc(Cl)cc3)nc3ccccc23)cc1 | – | inactive: -15.6%
CCOCCCn1c(=N)c(C(=O)NC2CCCC2)cc2c(=O)n3cccc(C)c3nc21 | – | inactive: 17.3%
Cc1nnc2c3ccccc3nc(N3CCN(c4cccc(Cl)c4)CC3)n12 | inactive | –
Cc1cccc(-n2ncc3c(Nc4c(C)cc(C)cc4C)ncnc32)c1 | – | inactive: -8.43%
CCOC(=O)c1cccc(Nc2cc(C)nc(C)n2)c1 | – | inactive: 1.35%
CCc1ccc(NC(=O)c2ccc3c(c2)c(C)c(C)n3Cc2ccccc2)cc1 | – | inactive: -3.33%
CCCCOc1ccc(C2c3c(oc4ccccc4c3=O)C(=O)N2c2nc(C)c(C(=O)OCC)s2)cc1OC (stereo unspecified) | – | inactive: -1.09%
COc1ccccc1CNC(=O)CN1C(=O)CCCc2ccccc21 | – | inactive: 4.85%
CCc1ccc(NC(=O)c2oc3c(c2C)-c2[nH]ncc2CC3)cc1 | inactive | –
O=C(Nc1ccccc1Br)N1CCN2CCCCC2C1 (stereo unspecified) | – | inactive: -1.85%

SMILES | outcome | activity change, negative = inhibition
O=S(=O)(Nc1ccc(Br)cc1)c1ccc2nc(-c3ccccc3)[nH]c2c1 | inactive | –
O=C(CCC1N=C2c3ccccc3N=C(SCc3cccc(F)c3)N2C1=O)NCc1ccc(F)cc1 (stereo unspecified) | – | inactive: 4.2%
Cc1ccc(CCNC(=O)CN2CCN(Cc3ccc(Cl)cc3)C2=O)cc1 | – | inactive: -0.132%
COc1ccc(S(=O)(=O)NCCc2cn3ccsc3n2)cc1 | – | inactive: 1.91%
Cc1ccc(S(=O)(=O)Nc2ccc3c(c2)c(C(=O)OC(C)C)c(C)n3S(=O)(=O)c2ccc(C)cc2)cc1 | – | inactive: 6.29%
CC(=O)c1ccc(NC(=O)c2ccc(CN3C(=O)CCn4nc(C)cc43)cc2)cc1 | – | inactive: -3.56%
Cn1nnnc1SCCCNCc1ccccc1OCc1ccccc1F | – | inactive: 0.419%
COC(=O)c1ccccc1NC(=O)c1cc(=O)c2ccc(C)c(C)c2o1 | – | inactive: -4.72%
COc1ccc(CCNC(=O)Cn2ccc3cc(S(=O)(=O)N4CCCCC4)ccc32)cc1OC | – | inactive: 2.14%
CCN(CC)CCNC(=O)Cn1ncc2c3ccccc3n(Cc3ccccc3C)c2c1=O | – | inactive: -8.55%
Cc1ccc(N(C(=O)c2cccc(C)c2)S(=O)(=O)c2ccc(Cl)cc2)cc1 | inactive | –
Cc1nn2c(=O)cc(COC(=O)c3ccc(F)cc3)nc2s1 | inactive | –
COc1ccc(C(=O)c2cn(Cc3cccc(C)c3)c3cc4c(cc3c2=O)OCCO4)cc1OC | – | inactive: 1.95%
CCc1ccc(NC(=O)CN2C(=O)CCSc3ccc(S(=O)(=O)N4CCCC4)cc32)cc1 | – | inactive: 1.57%
Cc1cccc(-c2[nH]c(C(C)(C)C)nc2-c2ccc3c(c2)OCO3)n1 | – | inactive: 9.73%
CCOC(=O)c1ccc(NC(=O)C2CCN(S(=O)(=O)Cc3ccccc3)CC2)cc1 | – | inactive: 1.41%
Cc1cc(Cl)ccc1NC(=O)CS(=O)(=O)c1cccc2nsnc12 | – | inactive: -7.53%
CCOc1ccc(NC(=O)c2sc3nc4n(c(=O)c3c2C)CCCC4)cc1 | inactive | –
CC(=O)c1ccc(NC(=O)C2CCCN(S(=O)(=O)c3ccc(Br)s3)C2)cc1 (stereo unspecified) | – | inactive: 0.323%
Cc1cccn2c(=O)c3cc(C(=O)NC(C)(C)C)n(C)c3nc12 | – | inactive: -7.21%
CCOC(=O)C1CCN(c2nc3c(S(=O)(=O)c4ccc(CC)cc4)nnn3c3ccc(Cl)cc23)CC1 | – | inactive: 1.35%
COC(=O)c1sc2cccc(F)c2c1S(=O)(=O)NC(C)c1ccccc1 (stereo unspecified) | – | inactive: -2.63%
CCc1ccc(NCc2cc3ccc(OC)cc3n(CC(=O)Nc3ccccc3OC)c2=O)cc1 | – | inactive: -25.5%
Cc1cc(C)cc(NC(=O)CSc2oc(-c3cccs3)nc2S(=O)(=O)c2ccc(Br)cc2)c1 | – | inactive: -11.2%
